Among the data in the supplement of paper PMC10369915 are enrichment score values, retold here.

Some of the results follow. Cut-off read from the data, not from the text of the source: active = 3.2 or more and inactive = the rest. Most of these values are background signal.
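Note: displayed peptides selected on beads carrying the immobilized SH2 domain, with library peptides lacking any tyrosine serving as negative controls.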

For one assay, the target named is SHP2 C-SH2 domain E139D. As to the kind of experiment: enrichment score (SH2-bound / input frequency) (ratio); bacterial display of known human phosphotyrosine sites (pTyr-Var adds point mutants) read by sequencing; higher = stronger binding; tyrosines were phosphorylated by kinases first. The note with it: peptide library: pTyr-Var.
Regarding NLNGKYYKPRA [ANGPTL3_Y417_N418Y], the enrichment score was inactive: 1.36.
On the same count and under the same terms, in the case of LTFDEYRNNSQ [ANXA3_Y216_I219N] it was inactive: 0.694.
The same measure, in the same setting: in the case of SFNNKYGMVAQ [APOB_Y276_K273N_YF] it was inactive: 0.715; in that of GEDEPYAEPFA [APBA1_Y183_S184A_YF], inactive: 0.367; in that of DRPSEYAARQL [ANXA13_Y90], inactive: 0.468.
Still for that read-out and setting: with VDASFCGGRGV [ANTXR2_Y381_Y381C_YF] the figure was inactive: 0.726; with RARPPYTVAAD [ANKZF1_Y572], inactive: 0.904; with PFSEPYADFGG [APBA1_Y187_YF], inactive: 1.27.
RRVEPYGENFN [APOA4_Y310]: the enrichment score is inactive: 0.602.
For SYKNKYGMVAQ [APOB_Y276], the enrichment score was inactive: 0.444.
Same read-out and setting: in the case of DHPSEYAARQL [ANXA13_Y90_R86H] it was inactive: 0.622; in that of DFSLKYATDIP [APC_Y1183_YF], inactive: 0.937.
Still for that read-out and setting: in the case of ITLPIYTKESE [ANK2_Y1455] it was inactive: 1.15; in that of GTVRDYPDFSP [ANXA3_Y15], inactive: 0.662.
Still for that read-out and setting: in the case of LTFDEYRNISQ [ANXA3_Y216] it was inactive: 1.46; in that of RLCQDYDIIGP [ANK1_Y1073_T1075I], inactive: 0.667.
Consider GLRQGYFVEAQ [APCS_Y142], for which the enrichment score was inactive: 0.764.
Same read-out and setting: in the case of VDHFGYTKDDK [APOB_Y740] it was inactive: 0.762; in that of IEPVIDVVQRR [ANOS1_Y217_Y217D], inactive: 0.396.

In a further assay the target is SHP2 C-SH2 domain wild-type. Described as above. The settings on record: peptide library: pTyr-Var.
As for NLNGKYYKPRA [ANGPTL3_Y417_N418Y], the enrichment score was inactive: 1.23.
With LTFDEYRNNSQ [ANXA3_Y216_I219N], the enrichment score was inactive: 0.944.
Same read-out and setting: in the case of SFNNKYGMVAQ [APOB_Y276_K273N_YF] it was inactive: 0.664; in that of GEDEPYAEPFA [APBA1_Y183_S184A_YF], inactive: 0.444.
In the case of DRPSEYAARQL [ANXA13_Y90], the enrichment score was inactive: 0.636.
Take VDASFCGGRGV [ANTXR2_Y381_Y381C_YF]: the enrichment score is inactive: 0.878.
On the same count and under the same terms, in the case of RARPPYTVAAD [ANKZF1_Y572] it was inactive: 0.883; in that of PFSEPYADFGG [APBA1_Y187_YF], inactive: 0.799; in that of RRVEPYGENFN [APOA4_Y310], inactive: 0.627.
As to SYKNKYGMVAQ [APOB_Y276], the enrichment score was inactive: 0.518.
The same measure, in the same setting: in the case of DHPSEYAARQL [ANXA13_Y90_R86H] it was inactive: 0.441; in that of DFSLKYATDIP [APC_Y1183_YF], inactive: 0.7.
ITLPIYTKESE [ANK2_Y1455]: the enrichment score is inactive: 1.12.
Still for that read-out and setting: in the case of GTVRDYPDFSP [ANXA3_Y15] it was inactive: 0.601; in that of LTFDEYRNISQ [ANXA3_Y216], inactive: 0.932.
On the same count and under the same terms, with RLCQDYDIIGP [ANK1_Y1073_T1075I] the figure was inactive: 0.842; with GLRQGYFVEAQ [APCS_Y142], inactive: 0.985; with VDHFGYTKDDK [APOB_Y740], inactive: 0.757.
On to IEPVIDVVQRR [ANOS1_Y217_Y217D], for which the enrichment score was inactive: 0.515.

The target in another assay is SHP2 N-SH2 domain L43F. The assay is described as above. The settings on record: peptide library: pTyr-Var.
Consider NLNGKYYKPRA [ANGPTL3_Y417_N418Y], for which the enrichment score is inactive: 1.11.
Still for that read-out and setting: with LTFDEYRNNSQ [ANXA3_Y216_I219N] the figure was inactive: 0.742; with SFNNKYGMVAQ [APOB_Y276_K273N_YF], inactive: 0.806; with GEDEPYAEPFA [APBA1_Y183_S184A_YF], inactive: 0.36.
Still for that read-out and setting: with DRPSEYAARQL [ANXA13_Y90] the figure was inactive: 0.444.
On the same count and under the same terms, in the case of VDASFCGGRGV [ANTXR2_Y381_Y381C_YF] it was inactive: 0.776; in that of RARPPYTVAAD [ANKZF1_Y572], inactive: 0.698; in that of PFSEPYADFGG [APBA1_Y187_YF], inactive: 1.12.
RRVEPYGENFN [APOA4_Y310]: the enrichment score is inactive: 0.502.
On the same count and under the same terms, with SYKNKYGMVAQ [APOB_Y276] the figure was inactive: 0.596; with DHPSEYAARQL [ANXA13_Y90_R86H], inactive: 0.471.
DFSLKYATDIP [APC_Y1183_YF]: the enrichment score is inactive: 0.914.
The same measure, in the same setting: in the case of ITLPIYTKESE [ANK2_Y1455] it was inactive: 1.18; in that of GTVRDYPDFSP [ANXA3_Y15], inactive: 0.822; in that of LTFDEYRNISQ [ANXA3_Y216], inactive: 0.951.
The same measure, in the same setting: with RLCQDYDIIGP [ANK1_Y1073_T1075I] the figure was inactive: 0.649.
The same measure, in the same setting: with GLRQGYFVEAQ [APCS_Y142] the figure was inactive: 0.824; with VDHFGYTKDDK [APOB_Y740], inactive: 0.797.
Take IEPVIDVVQRR [ANOS1_Y217_Y217D]: the enrichment score is inactive: 0.532.

For a further assay, the target named is SHP2 N-SH2 domain T42A. The description is as above. The settings on record: peptide library: pTyr-Var.
Turning to NLNGKYYKPRA [ANGPTL3_Y417_N418Y], the enrichment score is inactive: 1.18.
In the case of LTFDEYRNNSQ [ANXA3_Y216_I219N], the enrichment score is inactive: 0.865.
Still for that read-out and setting: with SFNNKYGMVAQ [APOB_Y276_K273N_YF] the figure was inactive: 0.648; with GEDEPYAEPFA [APBA1_Y183_S184A_YF], inactive: 0.326.
On the same count and under the same terms, with DRPSEYAARQL [ANXA13_Y90] the figure was inactive: 0.449; with VDASFCGGRGV [ANTXR2_Y381_Y381C_YF], inactive: 0.653; with RARPPYTVAAD [ANKZF1_Y572], inactive: 0.616.
On the same count and under the same terms, in the case of PFSEPYADFGG [APBA1_Y187_YF] it was inactive: 1.07; in that of RRVEPYGENFN [APOA4_Y310], inactive: 0.56; in that of SYKNKYGMVAQ [APOB_Y276], inactive: 0.54.
As to DHPSEYAARQL [ANXA13_Y90_R86H], the enrichment score is inactive: 0.402.
In the case of DFSLKYATDIP [APC_Y1183_YF], the enrichment score is inactive: 0.946.
The same measure, in the same setting: in the case of ITLPIYTKESE [ANK2_Y1455] it was inactive: 1.05; in that of GTVRDYPDFSP [ANXA3_Y15], inactive: 0.634; in that of LTFDEYRNISQ [ANXA3_Y216], inactive: 0.732.
Same read-out and setting: in the case of RLCQDYDIIGP [ANK1_Y1073_T1075I] it was inactive: 1.01; in that of GLRQGYFVEAQ [APCS_Y142], inactive: 0.767.
On the same count and under the same terms, with VDHFGYTKDDK [APOB_Y740] the figure was inactive: 0.613; with IEPVIDVVQRR [ANOS1_Y217_Y217D], inactive: 0.555.

The next assay addresses SHP2 N-SH2 domain T52S. The assay is described as above. The note with it: peptide library: pTyr-Var.
NLNGKYYKPRA [ANGPTL3_Y417_N418Y]: the enrichment score is inactive: 1.02.
The same measure, in the same setting: in the case of LTFDEYRNNSQ [ANXA3_Y216_I219N] it was inactive: 0.935.
The same measure, in the same setting: with SFNNKYGMVAQ [APOB_Y276_K273N_YF] the figure was inactive: 0.683; with GEDEPYAEPFA [APBA1_Y183_S184A_YF], inactive: 0.448; with DRPSEYAARQL [ANXA13_Y90], inactive: 0.499.
Still for that read-out and setting: in the case of VDASFCGGRGV [ANTXR2_Y381_Y381C_YF] it was inactive: 0.623.
RARPPYTVAAD [ANKZF1_Y572]: the enrichment score is inactive: 0.884.
The same measure, in the same setting: in the case of PFSEPYADFGG [APBA1_Y187_YF] it was inactive: 0.707; in that of RRVEPYGENFN [APOA4_Y310], inactive: 0.509.
The same measure, in the same setting: in the case of SYKNKYGMVAQ [APOB_Y276] it was inactive: 1.31; in that of DHPSEYAARQL [ANXA13_Y90_R86H], inactive: 0.508.
Same read-out and setting: in the case of DFSLKYATDIP [APC_Y1183_YF] it was inactive: 1.04.
Regarding ITLPIYTKESE [ANK2_Y1455], the enrichment score was inactive: 1.25.
In the case of GTVRDYPDFSP [ANXA3_Y15], the enrichment score was inactive: 0.62.
On the same count and under the same terms, with LTFDEYRNISQ [ANXA3_Y216] the figure was inactive: 1.1; with RLCQDYDIIGP [ANK1_Y1073_T1075I], inactive: 0.737; with GLRQGYFVEAQ [APCS_Y142], inactive: 0.771.
Still for that read-out and setting: in the case of VDHFGYTKDDK [APOB_Y740] it was inactive: 0.667; in that of IEPVIDVVQRR [ANOS1_Y217_Y217D], inactive: 0.542.

The target of the next assay is SHP2 N-SH2 domain wild-type. The assay is described as above. The settings on record: peptide library: pTyr-Var.
NLNGKYYKPRA [ANGPTL3_Y417_N418Y]: the enrichment score is inactive: 1.19.
Regarding LTFDEYRNNSQ [ANXA3_Y216_I219N], the enrichment score was inactive: 1.07.
Same read-out and setting: with SFNNKYGMVAQ [APOB_Y276_K273N_YF] the figure was inactive: 0.683.
On the same count and under the same terms, in the case of GEDEPYAEPFA [APBA1_Y183_S184A_YF] it was inactive: 0.282; in that of DRPSEYAARQL [ANXA13_Y90], inactive: 0.788; in that of VDASFCGGRGV [ANTXR2_Y381_Y381C_YF], inactive: 0.867.
Still for that read-out and setting: in the case of RARPPYTVAAD [ANKZF1_Y572] it was inactive: 0.936.
PFSEPYADFGG [APBA1_Y187_YF]: the enrichment score is inactive: 1.2.
The same measure, in the same setting: in the case of RRVEPYGENFN [APOA4_Y310] it was inactive: 0.606; in that of SYKNKYGMVAQ [APOB_Y276], inactive: 0.487; in that of DHPSEYAARQL [ANXA13_Y90_R86H], inactive: 0.552.
Same read-out and setting: with DFSLKYATDIP [APC_Y1183_YF] the figure was inactive: 1.16; with ITLPIYTKESE [ANK2_Y1455], inactive: 1.16.
On the same count and under the same terms, with GTVRDYPDFSP [ANXA3_Y15] the figure was inactive: 0.874; with LTFDEYRNISQ [ANXA3_Y216], inactive: 1.24; with RLCQDYDIIGP [ANK1_Y1073_T1075I], inactive: 0.828.
Take GLRQGYFVEAQ [APCS_Y142]: the enrichment score was inactive: 0.851.
On the same count and under the same terms, in the case of VDHFGYTKDDK [APOB_Y740] it was inactive: 0.895; in that of IEPVIDVVQRR [ANOS1_Y217_Y217D], inactive: 0.531.
